Hit rate of the full screen: of about 46,000 compounds, about 60 (0.1%) were called active. Inconclusive results (about 3%) are left out. Calls come from the whole dose curve; as a rule, active = well fitted inhibition curve with a large enough effect; inconclusive = small, poorly fitted or top-dose-only effect; inactive = no such curve, though single readings can be large or run the other way. Some of the results follow.

The nature of the assay: Primary qHTS assay for Inhibitors of ovarian cancer metastasis using an organotypic tumor microenvironment (TME) model.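 For activity change, negative = inhibition: plate controls were DMSO wells for no effect and tomatine positive control wells for full effect.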 Note: nearly all actives have a fitted effect of over 65% in size. The conditions noted are these: SKOV3ip1-GFP adhesion/invasion on 3D omental model, fluorescence; series mostly up to 45.8 µM; activity change, negative = inhibition: at the top concentration. Summed up: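 Adhesion/invasion was scored as fixed GFP-labeled SKOV3ip1 cell counts (488/509 nm), normalized to DMSO and tomatine controls. Cancer cells in serum-free medium, with four compound doses (0.36-46 umol/L), sat 2 hr at RT then 16 hr at 37 C on a 48 hr fibroblast/mesothelial/ECM culture.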
On the technique in general: In qHTS, concentration-response curves come from the screen itself.
Turning to `CN1CCN(c2ccc([N+](=O)[O-])c3no[n+]([O-])c23)CC1`, the “activity change, negative = inhibition” value was inactive: -3.77%.

Regarding `CCNC(=O)C[C@@H]1N=C(c2ccc(Cl)cc2)c2cc(OC)ccc2-n2c(C)nnc21`, the outcome was inactive. Consider `COc1cc([C@@H]2c3cc4c(cc3[C@@H](O)C3COC(=O)C32)OCO4)cc(OC)c1O` (some centres undefined), for which the “activity change, negative = inhibition” value is inactive: 3.82%. Same read-out and setting: in the case of `Cc1cc(C)cc(OCC(=O)Nc2ccc(Cl)cc2C(=O)c2ccccc2)c1` it was inactive: 4.53%. Take `COc1ccc(OCC(=O)N2CCN(Cc3cccc(OC)c3OC)CC2)cc1`: the outcome was inactive. On to `COC(=O)c1ccc(NC(=O)c2cccn(Cc3ccccc3C)c2=O)cc1`, for which the “activity change, negative = inhibition” value was inactive: 4.42%. On to `O=C(Nc1ccc(Br)cc1C(=O)c1ccccc1)c1ccccc1`, for which the “activity change, negative = inhibition” value was inactive: 13%.

Consider `CC(=CCCC1=CCC(C2=CC(=O)OC2O)OC1O)CCC1=C(C)CCCC1(C)C` (centres undefined), for which the “activity change, negative = inhibition” value was inactive: -3.27%. Same read-out and setting: in the case of `C=C1C[C@H]2[C@H]3CCC(=O)[C@@]3(C)CC[C@@H]2[C@@]2(C)C=CC(=O)C=C12` it was inactive: 9.92%; in that of `O=C(O)CNC(=O)c1c(O)c2ccccc2n(Cc2ccccc2)c1=O`, inactive: -20.3%; in that of `Cc1ccc(OCC(=O)Nc2ccc(Cl)cc2C(=O)c2ccccc2)cc1`, inactive: -4.97%. As for `Cc1c(C(=O)c2cccc3ccccc23)c2cccc3c2n1[C@H](CN1CCOCC1)CO3`, the “activity change, negative = inhibition” value is inactive: -14.9%. With `O=S1(=O)N(Cc2ccccc2)CCCN1Cc1ccc(F)cc1Cl`, the “activity change, negative = inhibition” value was inactive: 2.28%.

With `CN1CCN(c2oc(-c3ccc(COc4ccccc4)o3)nc2C#N)CC1`, the “activity change, negative = inhibition” value was inactive: -21%.

Consider `C[C@]12CCC(=O)C=C1CC[C@@H]1[C@H]3CC[C@](C)(O)[C@@]3(C)CC[C@@H]12`, for which the “activity change, negative = inhibition” value was inactive: 0.789% [at 92.2 µM]. Still for that read-out and setting: in the case of `COc1cc(C(c2c(O)c3ccccc3oc2=O)c2c(C)n(C)n(-c3ccccc3)c2=O)ccc1O` (centres undefined) it was inactive: 21.5%; in that of `CCC(=O)OC1CCC2C3CCC4=CC(=O)CC[C@@]4(C)C3CC[C@]12C` (some centres undefined), inactive: 8.12%; in that of `N[C@@H](Cc1ccc(N(CCCl)CCCl)cc1)C(=O)O`, inactive: 2.64%. For the molecule `Cc1nnc(NC(=O)c2cccn(Cc3cccc(Cl)c3)c2=O)s1`, the “activity change, negative = inhibition” value was inactive: 5.62%. Same read-out and setting: to `O=c1c2ccccc2nc(/C=C/c2ccccc2)n1-c1ccccc1F` belongs inactive: 9.65%. As for `CCOC(=O)c1c(C(C#N)=CN)c2ccc(Cl)c(Cl)c2n1C`, the “activity change, negative = inhibition” value was inactive: -22%. Same read-out and setting: in the case of `Cc1c(Cl)cccc1NC(=O)CN1C(=O)C(C)N=C(c2ccccc2)c2ccccc21` (centres undefined) it was inactive: -0.276%; in that of `COc1cc(C(c2c(O)c3ccccc3oc2=O)c2c(C)n(C)n(-c3ccccc3)c2=O)ccc1OCC(=O)O` (centres undefined), inactive: 0.325%; in that of `O=C(Nc1ccc(Cl)cc1C(=O)c1ccccc1)c1ccccc1Br`, inactive: -2.92%. `Nc1c(C(=O)Nc2ccc(Br)cc2F)sc2nc3c(cc12)N1CCC3CC1`: the molecule was called inactive.

As to `Cc1cccc(-n2c(/C=C/c3c(C)[nH]c4ccccc34)nc3ccccc3c2=O)c1`, the “activity change, negative = inhibition” value is inactive: 2.93%. For the molecule `COc1ccccc1NC(=O)N(Cc1ccc2c(c1)OCO2)C1CCN(Cc2ccccc2)CC1`, the “activity change, negative = inhibition” value is inactive: -11%. Still for that read-out and setting: in the case of `CN(C)CCN(C)CCc1ccc(Cl)c(Cl)c1` it was inactive: 1.64%; in that of `Nc1c(C(=O)Nc2ccc(Cl)cc2)sc2nc3c(cc12)N1CCC3CC1`, inactive: -14.9%; in that of `Cn1cc(/C=C/c2nc3ccccc3c(=O)n2-c2ccccc2)c2ccccc21`, inactive: -2.35%. Turning to `O=C(Nc1ccc2c(c1)OCO2)c1cccn(Cc2cccc(F)c2)c1=O`, the “activity change, negative = inhibition” value was inactive: -8.43%. The same measure, in the same setting: in the case of `COc1ccc(OC)c(NC(=O)Cn2cc(C(=O)c3ccccc3)c3ccccc32)c1` it was inactive: -1.53%.

`O=C(Nc1ccc(Cl)cc1C(=O)c1ccccc1)c1cc(Cl)cc(Cl)c1`: the “activity change, negative = inhibition” value is inactive: -6.63%. On the same count and under the same terms, to `NC1CC1c1ccccc1` (centres undefined) belongs inactive: -1.4%; to `CCOc1ccc2nc(NC(=O)c3cccn(Cc4ccccc4)c3=O)sc2c1`, inactive: 4.78%; to `CSc1ccc(CN2CCN(C(=O)COc3ccc(C)cc3)CC2)cc1`, inactive: -8.54%.

In the case of `CCc1ccccc1NC(=O)c1cccn(Cc2ccccc2F)c1=O`, the “activity change, negative = inhibition” value was inactive: 13.3%.

Take `O=C(Nc1ccncc1)C(=O)c1cn(Cc2ccc(Cl)cc2)c2ccccc12`: the “activity change, negative = inhibition” value was inactive: -2.37%. Regarding `O=C(Nc1ccc2c(c1)OCCO2)c1cccn(Cc2cccc(F)c2)c1=O`, the “activity change, negative = inhibition” value is inactive: 0.523%.

Consider `C#CC1(O)CCC2C3CCC4=CC(=O)CCC4(C)C3CCC21C` (centres undefined), for which the “activity change, negative = inhibition” value was inactive: -3.89%.

Consider `COc1ccc(-c2nc(CN3C(=O)CN=C(c4ccccc4)c4cc(Cl)ccc43)c(C)o2)cc1`, for which the “activity change, negative = inhibition” value was inactive: 0.656%. In the case of `CCOc1ccc2nc(NC(=O)c3cccn(Cc4ccc(Cl)cc4)c3=O)sc2c1`, the molecule was classed as inactive.

With `COc1cccc(/C=C/c2nc3ccccc3c(=O)n2-c2ccc(Cl)cc2)c1OC`, the “activity change, negative = inhibition” value is inactive: -20.9%. As to `O=C(N[C@H]1CN2CCC1CC2)c1ccc(Cl)cc1`, the “activity change, negative = inhibition” value is inactive: -13.2%. For the molecule `CCCC12CN3CC(CCC)(CN(C1)C3c1ccccn1)C2=O` (centres undefined), the “activity change, negative = inhibition” value was inactive: 1.74%. Take `CC(C)[C@H]1C(=O)N[C@H](CO)Cc2c[nH]c3cccc(c23)N1C`: the “activity change, negative = inhibition” value is inactive: 2.09%.

Regarding `COc1ccc(C)cc1NC(=O)c1cccn(Cc2cccc([N+](=O)[O-])c2)c1=O`, the “activity change, negative = inhibition” value was inactive: -2.92%. `Cc1ccc(-n2c(/C=C/c3cccs3)nc3ccccc3c2=O)cc1C`: the call was inactive. Turning to `CC(C)CC(N(C)C)C1(c2ccc(Cl)cc2)CCC1` (centres undefined), the “activity change, negative = inhibition” value was inactive: -0.698%.

The values are drawn from PubChem BioAssay AID1963576 (National Center for Advancing Translational Sciences (NCATS), 2024).
